Experimental findings from the supplement of paper PMC11417369 are described below.

± gives the standard deviation of the averaged measurements. This is one part of the list.

This test has as its system PfAP2-I AP2 domain 3 (GST-tagged). Description: gcPBM binding intensity (ln(normalized median fluorescence intensity)); higher = stronger DNA binding. An outline of the steps:
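Using an Agilent 4 × 180k array, primer-extended double-stranded 36-bp intergenic genomic probes and negative controls were exposed for 1 h to GST-fused P. falciparum DNA-binding domains expressed in E. coli. Binding was carried out in 1× PBS with 1% milk, 0.2 mg/ml BSA, 0.5% salmon testes DNA and 0.03% Triton X-100, and protein was detected with Alexa488 anti-GST antibody and a 488 nm scan. Binding intensity is the highest Masliner-normalised natural-log median intensity across replicate spots of either probe orientation.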
For the sequence “ATGAAAATATTTAAAAGTACAGAAATATAAAACCTT [XGTACX_site403]”, the “gcPBM binding intensity (ln)” value amounted to 7.88 ± 0.52.
Turning to “TATTTTATACACTTGCTAAAACATTAACACATATGT [CACACA_negctrl_site1818]”, the “gcPBM binding intensity (ln)” value is 7.9 ± 0.55.
The result for “AAAATATTTATCATTTGTACTTAGATGTAAACTTGA [XGTACX_site1778]” reads 7.5 ± 0.33; that for “TATAAAATATAAATAAATAAATAAATATATATATAT [TGCATGCA_negctrl_site448]”, 9.28 ± 0.26.
Next, “TCATATATTATATATTGTACAAAATAATAAGTATTT [XGTACX_site3987]”: 7.64 ± 0.42; “ATAATTGTTTAAAGGTGTACAATACATATATTTTAA [XGTACX_site3648]”: 7.91 ± 0.33; “ATTATACACCCGCGCACACACAACAAAAAAAAAAAA [CACACA_site5871]”: 9.04 ± 0.15.
Take “ATGCAATTATATAGTAGTACAAATTTATAAATATAC [XGTACX_site4869]”: the “gcPBM binding intensity (ln)” value was determined as 8.12 ± 0.41.
Take “ATATATATATATATGGGTACGTAAAAATATAATAAA [XGTACX_site4036]”: the “gcPBM binding intensity (ln)” value was determined as 9.36 ± 0.23.
“TTTTCTTTCTTTCAAACACACATTAATTTTATTCAT [CACACA_site2734]”: the “gcPBM binding intensity (ln)” value was found to be 7.61 ± 0.38.
Turning to “GTTGTTATATAAAATTGTACATAAAAAACAAAATAT [XGTACX_site5313]”, the “gcPBM binding intensity (ln)” value came out at 8.09 ± 0.5.
“ATAAATGGCTATAGCATATTGTATATGTGATTATAA [CACACA_negctrl_site948]”: the “gcPBM binding intensity (ln)” value was found to be 7.7 ± 0.55.
The result for “TCCATGCAGAAACACACACACAAAAAAAAATTCTTT [CACACA_site4099]” reads 7.83 ± 0.48; that for “AAAAAAATTACATATCCATTTTAACATAATAAATAG [GTGCAC_negctrl_site618]”, 7.56 ± 0.45; that for “TTACGAATAAAACAGTGTACATTGAATTTCTATGAG [XGTACX_site4771]”, 7.62 ± 0.53.
With “ATCTATGGGTAGTATACACACTGTATATTTAGGAAT [CACACA_site5569]”, the “gcPBM binding intensity (ln)” value stood at 7.78 ± 0.68.
With “ATTCTATTCTCCTTCACACACAAAAATATTTCATCA [CACACA_site2360]”, the “gcPBM binding intensity (ln)” value is 8.21 ± 0.59.
Next, “TTTTTGCAAAAAGAAATAATTTTATTTTAGTTCGGA [CACACA_negctrl_site1718]”: 7.41 ± 0.53.
Next, ACTAATAACAAAAGCTTGCACTTTTTTTTTCCTAAT: 8.5 ± 0.79; “TATAATTTTCTTAGTAGTACATTTTAAATCTACTAC [XGTACX_site2621]”: 7.64 ± 0.35.
Next, “TGTATCCACATATGTACACACATATATCTGTATATG [CACACA_site5668]”: 8.09 ± 0.42.
As to “TATGTACAAATATGTACACACACACCGATATATATA [CACACA_site4487]”, the “gcPBM binding intensity (ln)” value was determined as 8.29 ± 0.73.
In the case of “ATATAAGATTACAAAAATTATGTGTAAATATTTAAT [XGTACX_negctrl_site448]”, the “gcPBM binding intensity (ln)” value was 7.86 ± 0.52.
With “AAAAAAAAAAAAAAAAGTACAAAAATTATATTAAGA [XGTACX_site4255]”, the “gcPBM binding intensity (ln)” value is 8.53 ± 0.3.
“AATTATATATAACGTAGTACATATTATAAACCACGT [XGTACX_site8816]”: the “gcPBM binding intensity (ln)” value was found to be 8.28 ± 0.34.
Next, “ACCTATATAAATTATACACACAAATATAAATATATA [CACACA_site2843]”: 7.83 ± 0.38.
Take “ATATTCCTTTAATATTGTACTATTTTTTTCCTTATA [XGTACX_site8659]”: the “gcPBM binding intensity (ln)” value worked out at 7.83 ± 0.58.
On to “TGTCATAAAACCGTTTGTACATATTAATAGACACCT [XGTACX_site4520]”, for which the “gcPBM binding intensity (ln)” value stood at 7.76 ± 0.46.
Consider “TTGTTATTCCACCGTTGTACAGTTATATACATACAC [XGTACX_site8296]”, for which the “gcPBM binding intensity (ln)” value turned out to be 8.8 ± 0.25.
Next, “TATAATAATAATGATAGTACGTATGAGTTCAAGAAA [XGTACX_site4918]”: 7.92 ± 0.49; “ATATTAAGAATATATACACACATAAGTATTGTATAT [CACACA_site6110]”: 7.29 ± 0.5; “ATAAAATAAAATAAATGTACACGAAAAAAAATATTT [XGTACX_site3747]”: 8.49 ± 0.43.
Next, “TATTCGTGCAATAGTAGTACACTTATAAATTATTCT [XGTACX_site4899]”: 10.7 ± 0.61; “TTACTTGTTTATTTTATTTTTTTTTTTTTTTTGTTA [TGCATGCA_negctrl_site266]”: 7.24 ± 0.68.
Take “AGTGAGAAATACATAATAATACATTATGTGCATATT [XGTACX_negctrl_site247]”: the “gcPBM binding intensity (ln)” value amounted to 8.8 ± 0.014.
For the sequence “GTACACATATATATATATATATATATATATATATTA [CACACA_negctrl_site1580]”, the “gcPBM binding intensity (ln)” value is 8.51 ± 0.33.
The result for “AAGAATATTTTTTTCTGTACATATAATTTATATACG [XGTACX_site5801]” reads 7.64 ± 0.44.
Turning to “TTCATTTACCCTTATTAACACACAAAATATAATACG [CACACA_site8821]”, the “gcPBM binding intensity (ln)” value was 8 ± 0.34.
In the case of “TGTATATTATAAGATAGTACATATATATAATATATA [XGTACX_site1297]”, the “gcPBM binding intensity (ln)” value was determined as 7.68 ± 0.35.
Next, “ATCTTATATATACGTTGTACTACAGGATATGTCATA [XGTACX_site5734]”: 8.03 ± 0.37; “ATAAATATCATATATATACACACGTAATACATAATA [CACACA_site4001]”: 7.7 ± 0.57.
The result for “AAGGAGATAATTTATTGTACATATAATAAATGAACA [XGTACX_site6252]” reads 7.62 ± 0.41; that for “TCTTACAAAAAAAAAAAAAAATAAAATAAAATATAT [CACACA_negctrl_site1575]”, 7.42 ± 0.48.
Next, “TTAATATTATGTTAAAGTACTTTATATATATATAAT [XGTACX_site2646]”: 7.7 ± 0.4; “ACATACATATATATACGTACATATATATTTATATAT [XGTACX_site5799]”: 7.92 ± 0.4; “ATTCTAAATATCAGTGCACACATTTCTACGCAAAGT [CACACA_site474]”: 10.62 ± 0.042.
For “TAATTACAAAAACATACACACAAAAAAAAAAAAAAA [CACACA_site3782]”, the “gcPBM binding intensity (ln)” value came out at 8.01 ± 0.61.
As for “AGCAAATACAAACACACACACACATATACATATATA [CACACA_site3497]”, the “gcPBM binding intensity (ln)” value turned out to be 8 ± 0.5.
On to “GTTGGTAGATTTATTTGTACATATGTATCATATTAT [XGTACX_site7135]”, for which the “gcPBM binding intensity (ln)” value came to 7.92 ± 0.79.
The result for “AAAAATTTATTTTGTTTTTTAAGATTTTTTTTTTTT [CACACA_negctrl_site1210]” reads 7.16 ± 0.35; that for “TATTAATTTATATCAACACACAAAATCAATATACTT [CACACA_site1757]”, 7.61 ± 0.6; that for “ATATAGATCAGACACACACACATGTTTTAAAACTAT [CACACA_site6186]”, 8.04 ± 0.79.
For the sequence “AAGGAATAATATAAAACACACACATAAATATAAATA [CACACA_site9115]”, the “gcPBM binding intensity (ln)” value worked out at 7.82 ± 0.5.
The result for “CGAAATATTATGTACGCACACACATTTTTAATATAT [CACACA_site3852]” reads 8.34 ± 0.34; that for “TTCTATATTTTAGCTGATAATATTATGAGCTTCACT [XGTACX_negctrl_site427]”, 7.54 ± 0.65.
Consider “AACATAAATATATATAGTACATATATATATATTCAA [XGTACX_site7287]”, for which the “gcPBM binding intensity (ln)” value turned out to be 7.55 ± 0.28.
